Structures can show the parent of a compound that is named as a salt. Where two headings read alike, the source gives them in different places.
Legend:
[1] = test system: influenza virus A/Puerto Rico/8/1934 (H1N1); format: in vivo, BALB/c mice; settings: for protection against the lethal infection / body weight / recovery of body weight: mouse, in vivo; for survival rate: 10 mg/kg oral twice daily for 5 days from day 3 p.i.
[2] = test system: influenza virus A/Puerto Rico/8/1934 (H1N1)
[3] = 125 TCID50 PR8, 7.5 mg/kg oral twice daily for 5 days from day 3 p.i.
[4] = 500 TCID50 PR8, 20 mg/kg oral twice daily for 5 days from day 3 p.i., 14 days
[5] = 125 TCID50 PR8, 15 mg/kg oral twice daily for 5 days from day 3 p.i.

Cc1cc(Nc2nc(N[C@@H](C)c3ccc(F)cc3)c(C#N)cc2F)[nH]n1 [AZ 960]
protection against the lethal infection [1]: did not protect

Cc1cc(Nc2nc(N[C@@H](C)c3ncc(F)cn3)ncc2Cl)n[nH]1 [AZD1480]
protection against the lethal infection [1]: did not protect

CCS(=O)(=O)N1CC(CC#N)(n2cc(-c3ncnc4[nH]ccc34)cn2)C1 [Baricitinib]
infected mice protected [1, 3]: 70%

Cc1cc(Nc2cc(CN3CCOCC3)c3nc(C)c(Cc4ccc(Cl)cc4F)n3n2)n[nH]1 [Gandotinib]
protection against the lethal infection [1]: did not protect

CNS(=O)(=O)C[C@H]1CC[C@H](N(C)c2ncnc3[nH]ccc23)CC1 [Oclacitinib maleate]
infected mice protected [1, 4]: 40%
infected mice protected until day 13 ([1]; 500 TCID50 PR8, 20 mg/kg oral, until day 13): 60%
clinical score ([2]; 300 TCID50, 20 mg/kg/d, day 9 p.i.): lowest among all the groups
body weight ([2]; 300 TCID50, 40, 20 and 10 mg/kg/d, after day 9 p.i.): started to gain body weight
survival (infected mice protected) ([2]; 300 TCID50 PR8, 10 mg/kg/d intraperitoneal, from day 3 p.i. for 5 days, 21 days): 50%
survival rate ([2]; 300 TCID50 PR8, 40 mg/kg/d intraperitoneal, from day 3 p.i. for 5 days, 21 days): 20%
survival ([2]; mouse, in vivo): Seventy

NC(=O)c1cnc2[nH]ccc2c1N[C@@H]1[C@@H]2CC3C[C@H]1C[C@@](O)(C3)C2 [Peficitinib]
infected mice protected [1, 3]: 50%
infected mice protected [1, 5]: 50%
survival rate ([1]; 500 TCID50 PR8, 14 days): 40%
body weight [1]: gradually regained body weight

N#CC[C@H](C1CCCC1)n1cc(-c2ncnc3[nH]ccc23)cn1 [Ruxolitinib]
infected mice protected [1, 5]: 50%
survival rate ([1]; 500 TCID50 PR8, 14 days): 60%
body weight [1]: gradually regained body weight

N#CC[C@@H](C1CCCC1)n1cc(-c2ncnc3[nH]ccc23)cn1 [S-Ruxolitinib]
infected mice protected [1, 5]: 40%
infected mice protected [1, 4]: 40%
recovery of body weight [1]: recovered earlier and more efficiently

C[C@@H]1CCN(C(=O)CC#N)C[C@@H]1N(C)c1ncnc2[nH]ccc12 [Tofacitinib citrate]
infected mice protected ([1]; 125 TCID50 PR8, 7.5 mg/kg oral twice daily for 5 days from day 3 p.i., listed as tofacitinib-citrate): 40%

C[C@@H]1CCN(C(=O)CC#N)C[C@@H]1N(C)c1ncnc2[nH]ccc12 [Tofacitinib]
infected mice protected ([1]; 125 TCID50 PR8, 7.5 mg/kg oral twice daily for 5 days from day 3 p.i., listed as tofacitinib): 50%
recovery of body weight [1]: started earlier
